We go through 65 cell lines from the supplement of paper PMC4967469.

A lower IC50 marks a more sensitive line; a limit (>, <) means that the fit lies beyond the doses tested. The AUC spans the tested range (256-fold, ending at the top dose) of the same fit; the more sensitive the line, the further below 1. Any top dose called inferred is not printed in the source and was worked back from the curve model. Some results are limits rather than exact numbers.

Compound in the test: CCc1nc(-c2cccc(C)c2)c(-c2ccnc(NC(=O)c3ccccc3)c2)s1 [TAK-715]
Briefly: Viability of human cancer cell lines after 72 h of drug (GDSC screen). The note with it: top dose inferred. The method, then:
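Human cancer cell lines in 384-well plates, medium with 10% serum, drug for 72 h over a 256-fold dose range (nine 2-fold or five 4-fold steps up to the top dose). Adherent lines were fixed and stained with the nucleic acid dye Syto60, suspension lines read with resazurin; signal relative to control wells, capped at 0 and 100%. One two-parameter sigmoid per drug and line, fitted in a mixed model over all curves with the slope shared within a line.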

What is called IC50 is the concentration needed to halve the response being measured. Turning to “L-540 (Hodgkin lymphoma, suspension, top dose 20 µM)”, the AUC turned out to be 0.901 and the half-inhibitory concentration (IC50) is > 20 µM.

For “L-1236 (Hodgkin lymphoma, suspension, top dose 20 µM)”, the AUC stood at 0.979 and the IC50 is > 20 µM.

As for “LAMA-84 (chronic myeloid leukaemia, suspension, top dose 20 µM)”, the AUC is 0.865 and the IC50 was 18.1 µM.

For the cell line “LAN-6 (neuroblastoma, adherent, top dose 20 µM)”, the AUC was found to be 0.95 and the half-inhibitory concentration (IC50) was > 20 µM.

As to “LB373-MEL-D (melanoma, adherent, top dose 20 µM)”, the AUC stood at 0.969 and the IC50 is > 20 µM.

Take “LB647-SCLC (small cell lung carcinoma, semi-adherent, top dose 20 µM)”: the AUC amounted to 0.978 and the IC50 is > 20 µM.

As to “LB771-HNC (head and neck, adherent, top dose 20 µM)”, the AUC was 0.92 and the IC50 was > 20 µM.

Take “LB831-BLC (bladder, adherent, top dose 20 µM)”: the AUC is 0.983 and the IC50 is > 20 µM.

As to “LB996-RCC (kidney, adherent, top dose 20 µM)”, the AUC was 0.957 and the IC50 is > 20 µM.

Turning to “LB1047-RCC (kidney, adherent, top dose 20 µM)”, the AUC is 0.888 and the IC50 is > 20 µM.

Consider “LB2241-RCC (kidney, adherent, top dose 20 µM)”, for which the AUC was 0.955 and the IC50 was > 20 µM.

As to “LB2518-MEL (melanoma, adherent, top dose 20 µM)”, the AUC stood at 0.938 and the IC50 is > 20 µM.

Turning to “LC4-1 (lymphoblastic leukaemia, suspension, top dose 20 µM)”, the AUC came out at 0.862 and the IC50 is > 20 µM.

Consider “LC-1-sq (lung squamous cell carcinoma, adherent, top dose 20 µM)”, for which the AUC came out at 0.919 and the concentration for half-maximal inhibition (IC50) was > 20 µM.

On to “LC-2-ad (lung adenocarcinoma, adherent, top dose 20 µM)”, for which the AUC is 0.944 and the half-inhibitory concentration (IC50) is > 20 µM.

Take “LCLC-97TM1 (large cell lung carcinoma, adherent, top dose 20 µM)”: the AUC came to 0.93 and the IC50 is > 20 µM.

As for “LCLC-103H (large cell lung carcinoma, adherent, top dose 20 µM)”, the AUC was found to be 0.968 and the IC50 was > 20 µM.

Consider “LK-2 (lung squamous cell carcinoma, adherent, top dose 20 µM)”, for which the AUC amounted to 0.963 and the IC50 was > 20 µM.

“LN-18 (glioma, adherent, top dose 20 µM)”: the AUC turned out to be 0.992 and the IC50 is > 20 µM.

In the case of “LN-229 (glioma, adherent, top dose 20 µM)”, the AUC was 0.981 and the IC50 was > 20 µM.

With “LN-405 (glioma, adherent, top dose 20 µM)”, the AUC is 0.97 and the 50% inhibitory concentration (IC50) is > 20 µM.

Turning to “LNCaP-Clone-FGC (prostate, adherent, top dose 20 µM)”, the AUC stood at 0.897 and the IC50 is > 20 µM.

On to “LNZTA3WT4 (glioma, adherent, top dose 20 µM)”, for which the AUC was determined as 0.979 and the IC50 is > 20 µM.

With “LOU-NH91 (lung squamous cell carcinoma, adherent, top dose 20 µM)”, the AUC stood at 0.977 and the concentration for half-maximal inhibition (IC50) was > 20 µM.

With “LOUCY (T-cell lymphoblastic leukaemia, suspension, top dose 20 µM)”, the AUC was found to be 0.755 and the IC50 amounted to 5.68 µM.

For the cell line “LOXIMVI (melanoma, semi-adherent, top dose 20 µM)”, the AUC is 0.97 and the IC50 is > 20 µM.

Turning to “LP-1 (myeloma, suspension, top dose 20 µM)”, the AUC turned out to be 0.897 and the IC50 was found to be 17.3 µM.

With “LS-123 (large intestine, adherent, top dose 20 µM)”, the AUC worked out at 0.935 and the IC50 was > 20 µM.

As to “LS-180 (large intestine, adherent, top dose 20 µM)”, the AUC is 0.94 and the half-maximal inhibitory concentration (IC50) was > 20 µM.

Take “LS-411N (large intestine, adherent, top dose 20 µM)”: the AUC is 0.901 and the concentration for half-maximal inhibition (IC50) is > 20 µM.

With “LS-513 (large intestine, adherent, top dose 20 µM)”, the AUC was determined as 0.87 and the IC50 is 19.9 µM.

As for “LS-1034 (large intestine, adherent, top dose 20 µM)”, the AUC turned out to be 0.966 and the IC50 is > 20 µM.

Take “LU-65 (large cell lung carcinoma, suspension, top dose 20 µM)”: the AUC stood at 0.93 and the half-inhibitory concentration (IC50) is > 20 µM.

With “LU-99A (large cell lung carcinoma, adherent, top dose 20 µM)”, the AUC is 0.961 and the 50% inhibitory concentration (IC50) was > 20 µM.

In the case of “LU-134-A (small cell lung carcinoma, suspension, top dose 20 µM)”, the AUC was 0.981 and the IC50 was > 20 µM.

In the case of “LU-135 (small cell lung carcinoma, suspension, top dose 20 µM)”, the AUC was determined as 0.971 and the IC50 is > 20 µM.

Turning to “LU-139 (small cell lung carcinoma, suspension, top dose 20 µM)”, the AUC turned out to be 0.897 and the IC50 is > 20 µM.

As to “LU-165 (small cell lung carcinoma, suspension, top dose 20 µM)”, the AUC is 0.985 and the IC50 is > 20 µM.

Regarding “LXF-289 (lung adenocarcinoma, adherent, top dose 20 µM)”, the AUC was determined as 0.919 and the IC50 was > 20 µM.

As for “LoVo (large intestine, adherent, top dose 20 µM)”, the AUC was 0.987 and the IC50 is > 20 µM.

Regarding “M14 (melanoma, adherent, top dose 20 µM)”, the AUC is 0.986 and the IC50 was > 20 µM.

As for “M059J (glioma, adherent, top dose 20 µM)”, the AUC is 0.952 and the IC50 is > 20 µM.

For the cell line “MC116 (B-cell lymphoma, suspension, top dose 20 µM)”, the AUC came to 0.976 and the IC50 is > 20 µM.

With “MC-CAR (haematopoietic neoplasm, suspension, top dose 20 µM)”, the AUC worked out at 0.858 and the IC50 amounted to 13.7 µM.

Turning to “MC-IXC (neuroblastoma, adherent, top dose 20 µM)”, the AUC came to 0.83 and the IC50 turned out to be 8.27 µM.

On to MCF7 (breast, adherent, top dose 20 µM), for which the AUC stood at 0.955 and the IC50 was > 20 µM.

“MDA-MB-157 (breast, adherent, top dose 20 µM)”: the AUC turned out to be 0.987 and the IC50 is > 20 µM.

With “MDA-MB-175-VII (breast, adherent, top dose 20 µM)”, the AUC was 0.958 and the IC50 was > 20 µM.

As for “MDA-MB-231 (breast, adherent, top dose 20 µM)”, the AUC came out at 0.984 and the IC50 is > 20 µM.

“MDA-MB-330 (breast, adherent, top dose 20 µM)”: the AUC came to 0.975 and the IC50 was > 20 µM.

Take “MDA-MB-361 (breast, adherent, top dose 20 µM)”: the AUC is 0.986 and the IC50 was > 20 µM.

As for “MDA-MB-415 (breast, adherent, top dose 20 µM)”, the AUC worked out at 0.978 and the IC50 was > 20 µM.

For the cell line “MDA-MB-436 (breast, adherent, top dose 20 µM)”, the AUC worked out at 0.976 and the IC50 was > 20 µM.

Regarding “MDA-MB-453 (breast, adherent, top dose 20 µM)”, the AUC stood at 0.885 and the IC50 was > 20 µM.

Consider “MDA-MB-468 (breast, adherent, top dose 20 µM)”, for which the AUC came out at 0.895 and the IC50 is > 20 µM.

For the cell line “MDST8 (large intestine, adherent, top dose 20 µM)”, the AUC turned out to be 0.987 and the 50% inhibitory concentration (IC50) is > 20 µM.

Turning to “ME-1 (acute myeloid leukaemia, suspension, top dose 20 µM)”, the AUC was 0.985 and the IC50 was > 20 µM.

Take “ME-180 (cervix, adherent, top dose 20 µM)”: the AUC worked out at 0.822 and the IC50 amounted to 12.4 µM.

For the cell line “MEG-01 (chronic myeloid leukaemia, suspension, top dose 20 µM)”, the AUC was 0.841 and the IC50 amounted to 12.7 µM.

In the case of “MEL-JUSO (melanoma, adherent, top dose 20 µM)”, the AUC was 0.954 and the 50% inhibitory concentration (IC50) is > 20 µM.

As to “MES-SA (uterus, adherent, top dose 20 µM)”, the AUC came to 0.93 and the IC50 is > 20 µM.

As to “MFE-280 (endometrium, adherent, top dose 20 µM)”, the AUC worked out at 0.906 and the IC50 is > 20 µM.

Turning to “MFE-296 (endometrium, adherent, top dose 20 µM)”, the AUC worked out at 0.982 and the IC50 was > 20 µM.

As to “MFE-319 (endometrium, adherent, top dose 20 µM)”, the AUC was determined as 0.969 and the IC50 was > 20 µM.

For the cell line “MFH-ino (soft tissue, adherent, top dose 20 µM)”, the AUC amounted to 0.961 and the half-maximal inhibitory concentration (IC50) is > 20 µM.
